Results reported in patent US20250032630A1, “B7H4 ANTIBODY-DRUG CONJUGATE AND USE THEREOF” (Duality Biologics (Suzhou) Co., Ltd., priority 2022, published 2025).

Key:
cynomolgus monkey B7H4 = assay: Species cross-reactivity, flow cytometry binding to B7H4-transfected HEK293T cells; conditions: Monkey B7H4-293T
human CD80 (B7-1) = molecular target: T1, human CD80 (B7-1) (Homo sapiens, UniProt P33681); assay: Binding specificity to cells overexpressing human B7 family proteins (flow cytometry); conditions: HEK293T stably expressing the protein, 100 nM or 300 nM
T1 construct: expressed in transfected cells
T1 sequence (P33681 35-288): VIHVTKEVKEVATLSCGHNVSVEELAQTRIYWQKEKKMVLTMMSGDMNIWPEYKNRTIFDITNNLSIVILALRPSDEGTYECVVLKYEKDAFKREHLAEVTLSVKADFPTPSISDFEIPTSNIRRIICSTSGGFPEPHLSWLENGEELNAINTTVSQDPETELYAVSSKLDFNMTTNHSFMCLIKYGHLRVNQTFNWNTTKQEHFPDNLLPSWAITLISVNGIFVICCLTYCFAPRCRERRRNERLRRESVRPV

[1] = tested on: human breast cancer cells MX-1 with high expression of B7H4; assay: In vitro proliferation inhibition (3D cell culture, CTG); assay type: cell-based; conditions: MX-1, 3D culture, 6 days, highest concentration 100 nM
Description: (§1) The cells in the logarithmic growth phase were collected and a cell culture medium was added to resuspend the cells to prepare a single cell suspension. The single cell suspension was adjusted to a live cell density of […], and 3.5 mL of the cell suspension was mixed uniformly with 6.5 mL of 1% methylcellulose, avoiding bubbles as much as possible. 90 μL of the cell suspension was added to each well of 96-well plates, and the plates were cultured overnight in an incubator with 5% CO2 at 37° C. On the second day of the experiment, the test article was diluted with a complete medium to obtain a 10× solution, 10 μL of the test article solution (the highest final concentration of 100 nM, 9 concentrations, 3-fold dilution) was added to each well, the complete medium was used as a blank control, and 3 replicate wells were set up; and the plates were incubated in the incubator at 37° C. for another 6 days. After the incubation was completed, the cell culture plates were taken out and equilibrated to room temperature, and 100 μL of CTG detection reagent (Promega, Cat #: G7573) was added to each well. The plates were shaken and mixed uniformly, then left to stand in the dark for 10 minutes, and then placed at room temperature for 30 minutes to stabilize the luminescence signal. Luminescence was read using EnVision. Using GraphPad Prism software, a sigmoidal dose-response curve was plotted by using a non-linear regression model, and the IC50 value was calculated. Cell viability calculation

[2] = tested on: breast cancer cells JIMT-1 negative for B7H4 expression; assay: as above; assay type: cell-based; conditions: JIMT-1, 3D culture, 6 days
Description: as §1

[3] = tested on: endometrial carcinoma cells RL95-2 with low expression of B7H4; assay: as above; assay type: cell-based; conditions: RL95-2, 3D culture, 6 days, highest concentration 100 nM
Description: as §1

B1: DB1001-X2: anti-B7H4 antibody DB1001 conjugated with linker-cytotoxin X2, DAR 5.4 (conjugate)
heavy: QVQLVESGGGVVQPGRSLRLSCAASGFTFRSFGMHWVRQAPGKGLEWVAVISYDASNEYYADSVKGRFIISRDNSKDTLYLQMNSLRAGDTAVYYCAKGGALRWYFAYWGQGTLVTVSS[in this place human IgG1 constant region]
light: EIVMTQSPATLSVSPGERATLSCRASQSISSNLGWYQQKPGQAPRLLIYGASTRATGIPARFSGSGSGTEFTLTISSLQSEDFAVYYCQQYRSWPPLTFGGGTKVEIKRTVAAPSVFIFPPSDEQLKSGTASVVCLLNNFYPREAKVQWKVDNALQSGNSQESVTEQDSKDSTYSLSSTLTLSKADYEKHKVYACEVTHQGLSSPVTKSFNRGEC
B1 was tested, and the MFI.Max (cynomolgus monkey B7H4) was 10869, the “binding to B7-1” value (human CD80 (B7-1)) was “not detected” and the Max inh. [1] was 55.47%. It also gave an IC50 [2] greater than 100 nM, a Max inh. ([2]; highest concentration 100 nM) of 2.53% and a Max inh. [3] of 60.44%.
